The record followed here is patent CN117412992A (NOVIMMUNE SA, dated 2024).

For the experiment, the target named is T1, human CD47 on cells (Raji, Nalm-6, HT-1080 tumour cells; human red blood cells) (human, UniProt Q08722).
T1 construct: whole, on cells
Put plainly: flow cytometry on human red blood cells (CD47+, PD-L1-). (A flow cytometer gives signals particle by particle.)

B1: K2xS100 CD47xPD-L1 bispecific antibody (bispecific antibody, human IgG1, kappa, lambda)
heavy: [letters of about 120 residues left out][letters of about 100 residues left out][letters of human IgG1 Fc left out]
light 1: DIQMTQSPSSLSASVGDRVTITCRASQSISSYLNWYQQKPGKAPKLLIYAASSLQSGVPSRFSGSGSGTDFTLTISSLQPEDFATYYCQQMHPRAPKTFGQGTKVEIKRTVAAPSVFIFPPSDEQLKSGTASVVCLLNNFYPREAKVQWKVDNALQSGNSQESVTEQDSKDSTYSLSSTLTLSKADYEKHKVYACEVTHQGLSSPVTKSFNRGEC
light 2: QSVLTQPPSASGTPGQRVTISCSGSSSNIENKPVNWYQQLPGTAPKLLIYHDTTRPSGVPDRFSGSKSGTSASLAISGLQSEDEADYYCAAWDFATWPATEVFGGGTKLTVLGQPKAAPSVTLFPPSSEELQANKATLVCLISDFYPGAVTVAWKADSSPVKAGVETTTPSKQSNNKYAASSYLSLTPEQWKSHRSYSCQVTHEGSTVEKTVAPTECS
notes: kappa-lambda body with a common heavy chain; also called K2xS100 bsAb; bsAb K2xS100
B1: the binding result is recorded as “binds”.
